# According to patent US20150031733A1, “TETRAZOLINONE COMPOUNDS AND ITS USE” (SUMITOMO CHEMICAL COMPANY, LIMITED, priority 2012, published 2015):
# System: cucumber anthracnose fungi (Colletotrichum lagenarium)
# Assay: Cucumber anthracnose control test, foliar spray before inoculation
# Format: in vivo
# Details: 12.5 ppm, foliar spray 1 day before inoculation, cucumber (cv; Sagamihanjiro)
smiles,measurement,value
"CCOc1cccc(-n2nnn(C)c2=O)c1COc1nc(-c2ccccc2C)cs1 [Compound T095, 2-{[1-(4,5-dihydro-4-methyl-5-oxo-1H-tetrazole-1-yl)-3-ethoxyphenyl-2-yl]methyloxy}-4-(2-methylphenyl)thiazole]",lesion area compared to the lesion area in untreated plants,≤ 30%
